Data from the supplement of paper PMC8728848.
This is one part of the list.

Key:
Assay in all cases: glycan array binding signal (z-score within array); higher = stronger binding
Settings in all cases: glycan notation: IUPAC condensed, linker removed
[1] = biological target: GlcNAc(a1-4)Gal(b1-4)GalNAc
Procedure, shortened: (§1)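 Glycan array data came from 3228 arrays in the Consortium for Functional Glycomics database, and only arrays with an available protein sequence were kept. Glycan names were put into IUPAC-condensed notation, and columns mapping to the same glycan were averaged. The binding signal is a within-array Z-score, averaged across arrays of one protein sequence run at different concentrations or buffers and across linkers. A negative Z-score can be read as non-binding.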

[2] = biological target: GlcNAc(a1-4)Gal(b1-4)GlcNAc
Procedure, shortened: as §1

[3] = biological target: GlcNAc(a1-4)Gal(b1-4)GlcNAc(b1-3)Gal(b1-4)Glc
Procedure, shortened: as §1

[4] = biological target: GlcNAc(a1-4)Gal(b1-4)GlcNAc(b1-3)Gal(b1-4)GlcNAc
Procedure, shortened: as §1

[5] = biological target: GlcNAc(a1-4)Gal(b1-4)GlcNAc(b1-3)Gal(b1-4)GlcNAc(b1-3)Gal(b1-4)GlcNAc
Procedure, shortened: as §1

[6] = biological target: GlcNAc(a1-4)Gal(b1-4)GlcNAc(b1-3)Gal(b1-4)[Fuc(a1-3)]GlcNAc(b1-3)Gal(b1-4)[Fuc(a1-3)]GlcNAc
Procedure, shortened: as §1

[7] = biological target: GlcNAc(a1-6)Gal(b1-4)GlcNAc
Procedure, shortened: as §1

[8] = biological target: GlcNAc(b1-2)Gal(b1-3)GalNAc
Procedure, shortened: as §1

[9] = biological target: GlcNAc(b1-2)Man(a1-3)[GlcNAc(b1-2)Man(a1-6)]Man(b1-4)GlcNAc(b1-4)GlcNAc
Procedure, shortened: as §1

[10] = biological target: GlcNAc(b1-2)Man(a1-3)[GlcNAc(b1-2)Man(a1-6)]Man(b1-4)GlcNAc(b1-4)[Fuc(a1-6)]GlcNAc
Procedure, shortened: as §1

[11] = biological target: GlcNAc(b1-2)[GlcNAc(b1-4)]Man(a1-3)[GlcNAc(b1-2)Man(a1-6)]Man(b1-4)GlcNAc(b1-4)GlcNAc
Procedure, shortened: as §1

[12] = biological target: GlcNAc(b1-3)Gal
Procedure, shortened: as §1

[13] = biological target: GlcNAc(b1-3)Gal(b1-3)GalNAc
Procedure, shortened: as §1

[14] = biological target: GlcNAc(b1-3)Gal(b1-4)Glc
Procedure, shortened: as §1

[15] = biological target: GlcNAc(b1-3)Gal(b1-4)GlcNAc
Procedure, shortened: as §1

[16] = biological target: GlcNAc(b1-3)Gal(b1-4)GlcNAc(b1-3)Gal(b1-4)GlcNAc
Procedure, shortened: as §1

[17] = biological target: GlcNAc(b1-3)GalNAc
Procedure, shortened: as §1

[18] = biological target: GlcNAc(b1-3)Man
Procedure, shortened: as §1

[19] = biological target: GlcNAc(b1-3)[GlcNAc(b1-4)][GlcNAc(b1-6)]GlcNAc
Procedure, shortened: as §1

[20] = biological target: GlcNAc(b1-3)[GlcNAc(b1-6)]Gal(b1-4)GlcNAc
Procedure, shortened: as §1

[21] = biological target: GlcNAc(b1-3)[GlcNAc(b1-6)]GalNAc
Procedure, shortened: as §1

[22] = biological target: GlcNAc(b1-4)Gal(b1-4)GlcNAc
Procedure, shortened: as §1

[23] = biological target: GlcNAc(b1-4)GlcNAc
Procedure, shortened: as §1

[24] = biological target: GlcNAc(b1-4)GlcNAc(b1-4)GlcNAc
Procedure, shortened: as §1

[25] = biological target: GlcNAc(b1-4)GlcNAc(b1-4)GlcNAc(b1-4)GlcNAc(b1-4)GlcNAc
Procedure, shortened: as §1

[26] = biological target: GlcNAc(b1-4)GlcNAc(b1-4)GlcNAc(b1-4)GlcNAc(b1-4)GlcNAc(b1-4)GlcNAc
Procedure, shortened: as §1

[27] = biological target: GlcNAc(b1-4)[GlcNAc(b1-6)]GalNAc
Procedure, shortened: as §1

[28] = biological target: GlcNAc(b1-6)Gal(b1-4)GlcNAc
Procedure, shortened: as §1

[29] = biological target: GlcNAc(b1-6)GalNAc
Procedure, shortened: as §1

[30] = biological target: GlcNAc3Prop(b1-4)GlcNAc
Procedure, shortened: as §1

[31] = biological target: GlcNAc6S(b1-3)Gal(b1-4)GlcNAc
Procedure, shortened: as §1

[32] = biological target: Kdn(a2-3)Gal(b1-3)GalNAc
Procedure, shortened: as §1

[33] = biological target: Kdn(a2-3)Gal(b1-3)GlcNAc
Procedure, shortened: as §1

[34] = biological target: Kdn(a2-3)Gal(b1-4)Glc
Procedure, shortened: as §1

[35] = biological target: Kdn(a2-3)Gal(b1-4)GlcNAc
Procedure, shortened: as §1

[36] = biological target: Kdn(a2-3)Gal(b1-4)[Fuc(a1-3)]GlcNAc
Procedure, shortened: as §1

[37] = biological target: Kdn(a2-6)Gal(b1-4)GlcNAc
Procedure, shortened: as §1

[38] = biological target: Man(a1-2)Man(a1-2)Man(a1-3)Man
Procedure, shortened: as §1

[39] = biological target: Man(a1-2)Man(a1-2)Man(a1-6)[Man(a1-3)]Man
Procedure, shortened: as §1

[40] = biological target: Man(a1-2)Man(a1-3)Man
Procedure, shortened: as §1

[41] = biological target: Man(a1-2)Man(a1-3)[Man(a1-2)Man(a1-6)]Man
Procedure, shortened: as §1

[42] = biological target: Man(a1-2)Man(a1-3)[Man(a1-2)Man(a1-6)]Man(a1-6)[Man(a1-2)Man(a1-2)Man(a1-3)]Man
Procedure, shortened: as §1

[43] = biological target: Man(a1-2)Man(a1-3)[Man(a1-2)Man(a1-6)]Man(a1-6)[Man(a1-2)Man(a1-2)Man(a1-3)]Man(b1-4)GlcNAc(b1-4)GlcNAc
Procedure, shortened: as §1

[44] = biological target: Man(a1-2)Man(a1-3)[Man(a1-6)]Man(a1-6)[Man(a1-2)Man(a1-3)]Man(b1-4)GlcNAc(b1-4)GlcNAc
Procedure, shortened: as §1

[45] = biological target: Man(a1-2)Man(a1-6)[Man(a1-3)]Man(a1-6)[Man(a1-2)Man(a1-2)Man(a1-3)]Man
Procedure, shortened: as §1

B1: Gal 3 (Homo sapiens), P17931 (protein)
chain: MADNFSLHDALSGSGNPNPQGWPGAWGNQPAGAGGYPGASYPGAYPGQAPPGAYPGQAPPGAYHGAPGAYPGAPAPGVYPGPPSGPGAYPSSGQPSAPGAYPATGPYGAPAGPLIVPYNLPLPGGVVPRMLITILGTVKPNANILDFQRGNDVAFHFNPRFNENNRRVIVCNTKLDNNWGREERQSVFPFESGKPFKIQVLVEPDHFKVAVNDAHLLQYNHRVKKLNEISKLGISGDIDLTSASYTMI
In the case of B1, the “glycan array binding signal (z-score)” value [1] is reported as -0.389, the “glycan array binding signal (z-score)” value [2] is reported as -0.391 and the “glycan array binding signal (z-score)” value [3] is reported as 0.941. For the same binder, the “glycan array binding signal (z-score)” value [4] was 1.28, the “glycan array binding signal (z-score)” value [5] was 3.81 and the “glycan array binding signal (z-score)” value [6] was -0.364. The “glycan array binding signal (z-score)” value [7] was -0.392, the “glycan array binding signal (z-score)” value [8] was -0.389 and the “glycan array binding signal (z-score)” value [9] was -0.391. The “glycan array binding signal (z-score)” value [10] was -0.389, the “glycan array binding signal (z-score)” value [11] was -0.391 and the “glycan array binding signal (z-score)” value [12] was -0.39. For the same binder, the “glycan array binding signal (z-score)” value [13] was -0.386, the “glycan array binding signal (z-score)” value [14] was -0.391 and the “glycan array binding signal (z-score)” value [15] was 0.399. The “glycan array binding signal (z-score)” value [16] was 3.49, the “glycan array binding signal (z-score)” value [17] was -0.391 and the “glycan array binding signal (z-score)” value [18] was -0.391. The “glycan array binding signal (z-score)” value [19] was -0.362, the “glycan array binding signal (z-score)” value [20] was -0.39 and the “glycan array binding signal (z-score)” value [21] was -0.391. For the same binder, the “glycan array binding signal (z-score)” value [22] was -0.377, the “glycan array binding signal (z-score)” value [23] was -0.386 and the “glycan array binding signal (z-score)” value [24] was -0.389. For the same binder, the “glycan array binding signal (z-score)” value [25] was -0.379, the “glycan array binding signal (z-score)” value [26] was -0.391 and the “glycan array binding signal (z-score)” value [27] was -0.371. For the same binder, the “glycan array binding signal (z-score)” value [28] was -0.389, the “glycan array binding signal (z-score)” value [29] was -0.391 and the “glycan array binding signal (z-score)” value [30] was -0.386. The “glycan array binding signal (z-score)” value [31] was -0.39, the “glycan array binding signal (z-score)” value [32] was -0.39 and the “glycan array binding signal (z-score)” value [33] was -0.389. The “glycan array binding signal (z-score)” value [34] was -0.391, the “glycan array binding signal (z-score)” value [35] was -0.386 and the “glycan array binding signal (z-score)” value [36] was -0.385. For the same binder, the “glycan array binding signal (z-score)” value [37] was -0.39, the “glycan array binding signal (z-score)” value [38] was -0.389 and the “glycan array binding signal (z-score)” value [39] was -0.389. The “glycan array binding signal (z-score)” value [40] was -0.391, the “glycan array binding signal (z-score)” value [41] was -0.391 and the “glycan array binding signal (z-score)” value [42] was -0.389. The “glycan array binding signal (z-score)” value [43] was -0.391, the “glycan array binding signal (z-score)” value [44] was -0.389 and the “glycan array binding signal (z-score)” value [45] was -0.379.
